# Measured values reported in the supplement of paper PMC9446081.
# Among all 39,000 compounds or so, about 220 (0.56%) showed activity. This is one part of the list.
# System: Escherichia coli K-12 BW25113
# Assay: relative growth (OD600 normalised to plate interquartile mean) (fraction); higher = less growth inhibition, active = 0.2 or less
# Settings: 50 µM; LB; incubation time: overnight (16-24 h)
# 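Also: static incubation at 37 °C against the wild-type strain, values averaged over two biological replicates.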
row,Compound,relative growth
1,CCCN(C)C[C@@H]1OCCCC[C@H](C)Oc2ccc(NC(=O)c3ccccc3)cc2C(=O)N([C@H](C)CO)C[C@@H]1C,inactive: 1
2,COC1=C(OC)C(=O)C(CC=C(C)CCC=C(C)CCC=C(C)CCC=C(C)CCC=C(C)CCC=C(C)CCC=C(C)CCC=C(C)CCC=C(C)CCC=C(C)C)=C(C)C1=O,inactive: 0.941
3,C[C@H]1CN([C@@H](C)CO)C(=O)Cc2cc(NC(=O)Cn3cnnn3)ccc2O[C@H]1CN(C)Cc1ccccc1,inactive: 0.979
4,C=CC[C@H](CC(=O)N(CCO)Cc1ccccc1)C(=O)N[C@H](COC(=O)[C@@H](CC=C)Cc1ccc(F)cc1)Cc1c[nH]c2ccccc12,inactive: 1.1
5,C[C@@H]1CN([C@H](C)CO)C(=O)c2cc(-c3cccc(C(=O)N(C)C)c3)cnc2O[C@H]1CN(C)C(=O)Cc1ccccn1,inactive: 0.996
6,C[C@@H]1CN([C@@H](C)CO)C(=O)c2cc(NC(=O)c3ccccc3)ccc2O[C@@H](C)CCCCO[C@H]1CN(C)S(=O)(=O)c1ccccc1,inactive: 1.03
7,Cc1noc(C)c1S(=O)(=O)Nc1ccc2c(c1)C(=O)N([C@H](C)CO)C[C@@H](C)[C@@H](CN(C)Cc1ccc(Oc3ccccc3)cc1)O2,inactive: 0.995
8,COc1ccccc1S(=O)(=O)N[C@H]1CC[C@@H](CCNC(=O)C2CCOCC2)O[C@@H]1CO,inactive: 1
9,C[C@H](CO)N1C[C@H](C)[C@@H](CN(C)S(=O)(=O)c2ccccc2)OCCCC[C@H](C)Oc2ccc(NS(=O)(=O)c3ccc(Cl)cc3)cc2C1=O,inactive: 0.996
10,Cc1ccccc1NC(=O)C(C)(C)C,inactive: 1.02
11,Cc1ccc(S(=O)(=O)Nc2ccc3c(c2)C(=O)N([C@@H](C)CO)C[C@@H](C)[C@H](CN(C)S(=O)(=O)c2ccccc2)O3)cc1,inactive: 1
12,C[C@@H]1CN([C@@H](C)CO)C(=O)c2cc(NC(=O)Cc3ccccc3)ccc2O[C@@H](C)CCCCO[C@@H]1CN(C)Cc1ccc2c(c1)OCO2,inactive: 1.04
13,C[C@@H]1CN([C@H](C)CO)S(=O)(=O)c2ccc(C#Cc3ccc(F)cc3)cc2O[C@H]1CN(C)C(=O)c1ccccn1,inactive: 0.998
14,C[C@@H]1CN([C@H](C)CO)C(=O)c2cc(NS(=O)(=O)c3ccc(F)cc3)ccc2O[C@H]1CN(C)C(=O)Nc1cccc2ccccc12,inactive: 1.03
15,O=C(NCC(F)(F)F)[C@@H]1c2ccccc2C(=O)N(Cc2ccccc2C(F)(F)F)[C@H]1c1ccc(CO)cc1,inactive: 0.974
16,C[C@@H]1CCCCO[C@@H](CN(C)C(=O)c2ccccc2)[C@@H](C)CN([C@H](C)CO)C(=O)c2cc(NC(=O)Nc3ccccc3)ccc2O1,inactive: 1.02
17,CC(C)NCC(O)COc1ccc(CC(N)=O)cc1 (configuration not stated),inactive: 0.992
18,COc1ccc(NC(=O)Nc2ccc3c(c2)C(=O)N([C@@H](C)CO)C[C@H](C)[C@H](CN(C)Cc2ccc4c(c2)OCO4)OCCCC[C@H](C)O3)cc1,inactive: 0.992
19,CCCc1nc2c(=O)n(C)c(=O)[nH]c2n1C,inactive: 0.999

row,Compound,relative growth
1,Cc1c(C(N)=O)sc2[nH]cnc(=O)c12,inactive: 1.02
2,C[C@H]1CN([C@@H](C)CO)C(=O)c2cccc(NC(=O)c3cnccn3)c2O[C@H]1CN(C)Cc1ccncc1,inactive: 1.01
3,C[C@@H]1CN([C@H](C)CO)C(=O)Cc2cc(NS(=O)(=O)c3ccccc3)ccc2O[C@H]1CN(C)Cc1ccc(-c2ccccc2)cc1,inactive: 1.02
4,O=C(C[C@H]1CC[C@H]2[C@@H](COC[C@@H](O)CN2S(=O)(=O)c2ccc(Oc3ccccc3)cc2)O1)NCCN1CCCCC1,inactive: 1
5,C[C@@H]1CN([C@H](C)CO)C(=O)c2cc(NC(=O)CCCCCC(=O)Nc3ccccc3N)ccc2O[C@@H](C)CCCCO[C@@H]1CN(C)C(=O)Cc1ccccc1,inactive: 1
6,CO[C@H](CN(C)C(=O)c1ccc2c(c1)OCO2)[C@@H](C)CN([C@@H](C)CO)S(=O)(=O)c1ccc(C)cc1,inactive: 1.04
7,C[C@@H]1CCCCO[C@H](CN(C)Cc2ccc(C(=O)O)cc2)[C@H](C)CN([C@@H](C)CO)C(=O)c2cc(NS(=O)(=O)c3ccccc3)ccc2O1,inactive: 0.989
8,CO[C@@H](C(=O)N(C)C[C@H]1OCc2ccccc2-c2c(n(C)c3ccccc23)C(=O)N([C@H](C)CO)C[C@@H]1C)c1ccccc1,inactive: 1.03
9,Cn1c(=O)n2n(c1=O)[C@H](C1CC1)C=C1CN3[C@@H]([C@H](Cc4ccccc4)OC(=O)[C@@H]3Cc3ccc(-n4cc(C(=O)NO)nn4)cc3)[C@@H]12,inactive: 1.02
10,C[C@@H]1CN([C@@H](C)CO)C(=O)c2cc(NS(=O)(=O)c3ccccc3)ccc2O[C@@H](C)CCCCO[C@H]1CN(C)S(=O)(=O)c1ccc(Cl)cc1,inactive: 1.02
11,COc1ccc(S(=O)(=O)N(C)C[C@H]2OCCCC[C@@H](C)Oc3ccc(NC(=O)Nc4ccc(C(F)(F)F)cc4)cc3C(=O)N([C@@H](C)CO)C[C@@H]2C)cc1,inactive: 1.05
12,C[C@@H]1CN([C@H](C)CO)S(=O)(=O)c2ccc(C#CCN(C)C)cc2O[C@H]1CN(C)C(=O)C1CCCCC1,inactive: 0.966
13,C[C@H](CO)N1C[C@H](C)[C@H](CN(C)Cc2ccc(Cl)c(Cl)c2)Oc2ccc(NC(=O)C3CCCCC3)cc2CC1=O,inactive: 1.03
14,COC(=O)C[C@H]1CC[C@@H]2[C@H](COC[C@@H](O)CN2S(=O)(=O)c2ccc(F)cc2)O1,inactive: 1.01
15,Cc1ccc(S(=O)(=O)Nc2ccc3c(c2)C(=O)N([C@@H](C)CO)C[C@H](C)[C@@H](CN(C)S(=O)(=O)c2ccc(F)cc2)O3)cc1,inactive: 1.01
16,Cc1noc(C)c1S(=O)(=O)N(C)C[C@@H]1OCCCC[C@@H](C)Oc2ccc(NS(C)(=O)=O)cc2C(=O)N([C@@H](C)CO)C[C@H]1C,inactive: 0.992
17,Cn1cnc(CCNC(=O)C[C@@H]2CC[C@@H]3[C@H](COC[C@H](O)CN3C(=O)Nc3ccc(Cl)cc3)O2)c1,inactive: 0.996
18,C[C@H](CO)N1C[C@H](C)[C@H](CN(C)C(=O)c2ccc3c(c2)OCO3)Oc2cc(-c3cccnc3)ccc2S1(=O)=O,inactive: 0.99
